# Results from PubChem BioAssay AID504444 (National Center for Advancing Translational Sciences (NCATS), 2011).
# “And” between values parts separate entries of the source, which are not always exact repeats. Equal values may be shown once. The whole screen tested about 360,000 compounds, of which about 7,500 (2.1%) were called active. Not shown: some 20% with an inconclusive outcome. Calls come from the whole dose curve; as a rule, active = well fitted inhibition curve with a large enough effect; inconclusive = small, poorly fitted or top-dose-only effect, or effect the other way; inactive = flat fitted curve, though single readings scatter. This is a selection; strong and weak results do not stand in their true shares. More than one record can exist for a structure, and the calls need not agree.
# Test: Nrf2 qHTS screen for inhibitors; note: nearly all actives have a fitted effect of over 60% in size
# Conditions: A549 ARE-Fluc reporter, luciferase luminescence, 18-24 h; series mostly up to 46 µM; activity change, negative = inhibition: at the top concentration
# Summary of the method: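 Concentration-response testing used A549 ARE_Fluc cells at 5000 cells/well. Following an 18-24 h compound incubation, viability was read by fluorescence (Ex 405/Em 525) and luciferase output by luminescence.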
# % is set by controls: 0 for no effect and ±100 for the full control effect; potency is the fitted concentration of half-maximal effect.
Compound,"activity change, negative = inhibition",Potency
CCC(CC)C(=O)Nc1nnc(S(=O)(=O)N2CCCCCC2)s1,inactive: 8.33%,
CCCN(CCC)C(=O)c1cc2c(=O)n3cccc(C)c3nc2s1,inactive: 10.7%,
C[C@@H]1C[C@H](Nc2ccccc2)c2ccccc2N1C(=O)c1cccnc1,inactive: 0.249%,
O=C(NNC(=O)c1cccc(S(=O)(=O)N2CCc3ccccc32)c1)c1ccccc1,,active: 8.2 µM
CCCOc1ccccc1C1NC(=O)NC(C)=C1C(=O)OCc1ccccc1 (stereo not drawn),,active: 10.3 µM
CCOC(=O)[C@H](CCc1ccccc1)N[C@@H](C)C(=O)N1CCCC1C(=O)O (stereo partly drawn),inactive: 0.63%,
Cc1ccc(-n2nc3c(=O)n(CCCC(=O)NCCc4ccccc4)nc(C)c3c2C)cc1,inactive: 4.51%,
Cc1cccc(CCNC(=O)CCS(=O)(=O)c2cc3c(cc2Cl)NC(=O)CO3)c1,inactive: -20.4%,
Cc1cccc(-n2cnc3cc(C(=O)N4CCCCC4)ccc32)c1,inactive: 23.5%,
COC(=O)/C=C1/SC(=Nc2ccc(Cl)c(Cl)c2)NC1=O,inactive: -11.1%,
Cc1ccc(-c2cc([C@H]3[C@H]4C=CC[C@@H](C)[C@@H]4C(=O)N3Cc3ccccc3)ccc2F)cc1,inactive: -10.1%,
NC1=NC[C@@H](Cc2ccc(O)cc2)N1CCCCC1CCCCC1,inactive: 25.7%,
O=C(NCc1nc2ccccc2[nH]1)C1=C[C@@H](c2csc3ccccc23)C[C@@H](OCc2ccc(CO)cc2)O1,inactive: 4.52%,
O=C(Nc1ccccc1N1CCCC1)c1ccc([N+](=O)[O-])o1,,active: 16.4 µM
COc1ccc(CCNC(=O)c2ccc3c(c2)N(Cc2ccc(C)cc2)CCS3)cc1OC,inactive: 2.54%,
Cc1cn([C@H]2C=C[C@@H](CO)O2)c(=O)[nH]c1=O,inactive: -0.974%,
CCC(=O)Nc1cccc(C(=O)/C=C/c2ccc(F)cc2)c1,,active: 23.1 µM
C=CCC[C@@H](Cc1ccc(F)cc1)C(=O)OC[C@@H]1CCCN1C(=O)[C@H](CC=C)CC(=O)N[C@H](CO)Cc1ccccc1,inactive: -26.1%,
C/C(=N\Nc1ccc(C(=O)O)cc1)c1ccc2c(c1)Nc1ccccc1S2,inactive: 17.4%,
O=C(Nc1nc(-c2ccccc2)cs1)c1ccccc1NS(=O)(=O)c1ccc(F)cc1,,active: 6.51 µM
CN1C(C(=O)Nc2ccc(F)cc2F)=CC(c2ccco2)=NS1(=O)=O,inactive: -11.3%,
Cc1cccn2c(=O)c(C(=O)NCCCN3CCCCC3C)c(O)nc12 (stereo not drawn),inactive: 4.13%,
O=C(Cn1c(=O)c2cccn2c2ccccc21)Nc1cc(F)ccc1F,inactive: -0.0475%,
O=C(c1ccc2c(c1)N(Cc1ccc(F)cc1)C(=O)c1ccccc1S2=O)N1CCC(Cc2ccccc2)CC1 (stereo not drawn),,active: 23.1 µM

Compound,"activity change, negative = inhibition",Potency
O=C(Nc1nnc(S(=O)(=O)Nc2ccccc2)s1)C1CCCCC1,inactive: -23.6%,
O=C(O)C1=C[C@@H](c2ccc(C(F)(F)F)cc2)C[C@@H](OCc2ccc(CO)cc2)O1,inactive: 7.98%,
Cc1nc2nc(CSc3nnc(C)s3)cc(=O)n2[nH]1,inactive: -6.32%,
O=[N+]([O-])c1ccc(Cl)c(C[n+]2cccc3ccccc32)c1,,active: 11.6 µM
CCC(=O)NC(c1ccco1)c1cc(Cl)c2cccnc2c1O (stereo not drawn),inactive: -4.27%,
O=C(c1ccc2c(=O)n(CCc3ccccc3)c(=O)[nH]c2c1)N1CCN(c2ccc(F)cc2)CC1,inactive: -8.7% [at 9.27 µM],
CC(=C\C(=O)O)/C(=C/c1ccccc1)C(=O)O,inactive: -13.3%,
CN1C(=O)Cc2cc(S(=O)(=O)N3CCN(c4ccccc4F)CC3)ccc21,inactive: 12.9%,
O=S(=O)(c1ccc(SCCOc2ccc(Br)cc2)nc1)N1CCCC1,,active: 16.4 µM
Cc1ccccc1C(=O)c1cccn1CC(=O)NCc1ccccc1,inactive: 0.903%,
COc1ccc(NC(=O)CSc2nc3ccccc3nc2N2CCOCC2)c(OC)c1,inactive: -9.71%,
COc1ccc(CN=C(N)N=C(N)N)cc1Cl,,active: 16.4 µM
COc1cc(C(=O)Nc2ccc3nc4n(c(=O)c3c2)CCCCC4)cc(OC)c1OC,inactive: 5.77%,
CCc1ccc(NC(=O)Cn2c(=O)c3cccn3c3ccccc32)cc1,inactive: 18.1%,
Cc1cccc(NC(=O)CCn2cnnn2)c1,inactive: 0.916%,
CCN(CC)C(=O)Cn1c(=O)n(-c2ccccc2)c(=O)c2c3c(sc21)CCC3,inactive: -2.91%,
O=C(N/C(=C/c1ccc(Br)cc1)C(=O)N1CCCC1)c1cccs1,inactive: 3.09%,
Cc1cc(-c2ccccc2)cc(-c2ccccc2)[n+]1C,,active: 11.6 µM
CCN1C(=O)[C@@H]2[C@@H](c3ccc(-c4cccc(Cl)c4)c(OC)c3)N3CCCC[C@@]3(C(=O)OC)[C@@H]2C1=O,inactive: -17.1%,
C=CC[C@@H](CC(=O)N[C@H](CO)Cc1ccccc1)C(=O)N[C@@H](COC(=O)[C@@H](CC=C)CC(=O)OC(C)(C)C)Cc1ccccc1,inactive: -14.6%,
CCOc1ccc(CCNC(=O)CS(=O)(=O)Cc2nc(-c3ccc(OC)cc3)oc2C)cc1,inactive: -16.5%,
CCOc1ccc(NC(=O)c2sc3nc4n(c(=O)c3c2C)CCC4)cc1,inactive: 1.36%,
CCCCN(CC)CCNC(=O)C1CCN(S(=O)(=O)c2cccc3nsnc23)CC1,inactive: 10.2%,
N[C@@H](Cc1cc(I)c(Oc2ccc(O)c(I)c2)c(I)c1)C(=O)O,inactive: -3.97%,

Compound,"activity change, negative = inhibition",Potency
O=C(Nc1ccc(C(F)(F)F)cc1)c1csc(-c2ccncc2)n1,,active: 18.4 µM
CC(=O)c1ccc(N2CCN(c3ccc4cc(S(=O)(=O)N5CCC(C)CC5)ccc4n3)CC2)cc1,inactive: 7.24%,
Cc1ccc(CNC(=O)Cn2cccc2C(=O)c2ccccc2C)cc1,inactive: 15.1%,
CCC1CN(C(=O)NCc2ccc(C)cc2)c2cc(C)ccc2O1 (stereo not drawn),inactive: -20.9%,
Cc1cccc(C(=O)Nc2ccc(O)c3c(=O)cc(-c4ccccc4Cl)oc23)c1,inactive: -26.6%,
COc1ccccc1NC(=O)CN(C)S(=O)(=O)c1cccc2cccnc12,inactive: -0.0194%,
Cc1ccc(CNC(=O)CCc2c(C)nn(-c3ccc(N4CCOCC4)nn3)c2C)cc1,inactive: 6.51%,
CC(=O)N1c2ccc(S(=O)(=O)NCc3ccccc3Cl)cc2CC1C (stereo not drawn),inactive: -15.1%,
COc1ccc(C)cc1NC(=O)c1cc(S(=O)(=O)N2CCOCC2)cn1C,inactive: -13.6%,
CC(=C/c1ccccc1)/C=N/NC(=O)c1cc(C)oc1C,inactive: 10.1%,
Cn1c(SCC(=O)N/N=C/C=C\c2ccccc2[N+](=O)[O-])nc2ccccc21,inactive: 18.7%,
Cn1cc(C(=O)N/N=C/C(Br)=C/c2ccccc2)ccc1=O,inactive: 16.3%,
Oc1ccc(COc2ccccc2Cl)c2cccnc12,,active: 18.4 µM
CCc1cc[n+](C(C(=S)Nc2cccc(C)c2)=C([O-])c2ccc(C)c([N+](=O)[O-])c2)cc1,inactive: 7.59%,
COc1cccc(NS(=O)(=O)c2ccc3c(c2)[C@H]2C=CC[C@H]2[C@@H](c2ccccc2Cl)N3)c1,,active: 20.6 µM
Cc1ccccc1NS(=O)(=O)c1nnc(NC(=O)c2ccc(Cl)cc2)s1,inactive: 5.14%,
CC(C)(C)c1ccc(C2CC2C(=O)N/N=C\c2ccc[nH]2)cc1 (stereo not drawn),,active: 1.64 µM
COc1ccc(C(=O)Nc2ccc(S(=O)(=O)Nc3cc(C)nc(C)n3)cc2)cc1,inactive: 8.6%,
OCC[C@H]1C[C@@H](O)[C@H](O)[C@]2(Cc3ccccc3CO2)O1,inactive: 3.74%,
O=C(c1cc(COc2cccc(C(F)(F)F)c2)on1)N1CCC(c2ccncc2)CC1,,active: 13 µM
COC(=O)[C@@]12CCCCN1[C@H](c1ccc(SC3CCCCC3)cc1)[C@H]1C(=O)N(C)C(=O)[C@H]12,inactive: -17.8%,
Nc1nc(=S)c2ncn(C3OC(CO)C(O)C3O)c2[nH]1 (stereo not drawn),inactive: -7.75%,
CCC(Oc1ccccc1)C(=O)Nc1nnc(S(=O)(=O)Nc2ccccc2)s1 (stereo not drawn),inactive: -13.1%,
COCCNC(=O)CCC(=O)NNc1nc2ccccc2c2nc(-c3ccccc3)nn12,inactive: -9.82%,

Compound,"activity change, negative = inhibition",Potency
C[C@@H](C(=O)NCCc1c[nH]c2ccccc12)[C@@H]1C[C@@]1(C)[C@@H](NC(=O)OCc1ccccc1)c1ccccc1,inactive: -25%,
COc1ccc(C2/C=C\CN(C(=O)OCc3ccccc3)CC(=O)N2Cc2ccc(F)cc2)cc1 (stereo not drawn),inactive: -12.8%,
Cc1ccc(-n2c(O)c(/C=N/n3cnnc3)c3ccccc3c2=O)cc1,inactive: -29.9%,
Nc1ncnc2c1C(c1ccccc1)c1c(ccc3ccccc13)O2 (stereo not drawn),,inactive and active: 18.4 µM
CC(C)CCNC(=O)CCC(=O)NNc1nc2ccccc2c2nc(-c3ccccc3)nn12,inactive: -12.7%,
Cc1ccc(-n2c(=O)c3ccc(C(=O)NCc4ccco4)cc3n(Cc3ccccc3C#N)c2=O)cc1,inactive: 7.3%,
S=C(NC1CC2CCC1C2)N1CCN(c2cccc(Cl)c2)CC1 (stereo not drawn),,active: 16.4 µM
CC(C)(C)OC(=O)NCCCCCNC(=O)c1nc[nH]c1C(=O)NCCCCCNC(=O)OC(C)(C)C,,active: 13 µM
CCOC(=O)C1=CC[C@H]2c3c(c4ccccc4n3C)C(=O)C1N2C(=O)OC(C)(C)C,inactive: -11.6%,
CC(C)CC(=O)Nc1nnc(S(=O)(=O)N2CCCCCC2)s1,inactive: 20.2%,
C=CC[C@H](CC(=O)N(CCO)Cc1ccccc1)C(=O)N[C@H](C)COC(=O)[C@@H](CC=C)Cc1ccc(F)cc1,inactive: -25.3%,
COc1ccc(-c2cc(C)no2)cc1S(=O)(=O)N1CCN(c2cccc(C)c2)C(C)C1 (stereo not drawn),inactive: 0.271%,
CCc1ccc(NC(=O)CSc2nc3nc(C)cc(C)n3n2)cc1,inactive: -27.9%,
COc1ccc2cc(CN(CCO)C(=O)c3ccc(Br)cc3)c(=O)[nH]c2c1,,active: 20.6 µM
CCOc1ccccc1NC(=O)c1nc(S(=O)(=O)Cc2cccc(C)c2)ncc1Cl,inactive: 13.1%,
CC(=O)c1ccccc1OCc1ccc(S(=O)(=O)Cc2ccccc2)cc1,,active: 20.6 µM
CCOC(=O)/C=C1/SCC(=O)N1CC(=O)Nc1ccc2c(c1)CCC2,inactive: 3.06%,
COc1ccc(C)cc1NC(=O)CN1C(=O)COc2ccc(S(=O)(=O)N3CCC(C)CC3)cc21,inactive: 7.49%,
CC(C)(C)OC(=O)N[C@H](Cc1ccccc1)C(=O)N1CCC(C(=O)O)CC1,inactive: -4.16%,
COc1cccc(CNc2ccc3c(c2)ncn3C)c1OC,inactive: 0.813%,
Cc1ccccc1NC(=O)/C(C#N)=C/c1ccsc1,inactive: 6.99%,
